In the antibiotic and cytotoxicity screens of Wong et al. (2023) one finds cytotoxicity call and growth inhibition call data, which are given here for 26 compounds.

Assay [1] deals with HSkMC (human skeletal muscle cells). In words: cytotoxicity call (relative viability < 0.9). The note with it: 10 µM.
The subject of assay [2] is HepG2. In words: cytotoxicity call (relative viability < 0.9). Particulars: 10 µM.
Assay [3] relates to S. aureus RN4220. In words: growth inhibition call (relative growth <= 0.2). The note with it: 50 µM.

SMILES strings stand for the structures. Some of the results follow.

Take `Cc1noc(C)c1NC(=O)N(C)C[C@@H]1Oc2ccc(NS(C)(=O)=O)cc2C(=O)N([C@H](C)CO)C[C@H]1C`: the cytotoxicity call in assay [1] and in assay [2] was “inactive” in each case. Also, the growth inhibition call in assay [3] was “inactive”.
Consider `CC(C)NC(=O)N(C)C[C@@H]1OCCCC[C@@H](C)Oc2ccc(NC(=O)Nc3ccc(C(F)(F)F)cc3)cc2C(=O)N([C@H](C)CO)C[C@@H]1C`, for which the cytotoxicity call in assay [1] and in assay [2] was “inactive” throughout. In assay [3], the growth inhibition call was “inactive”.
With `C[C@H](CO)N1C[C@H](C)[C@H](CN(C)S(=O)(=O)c2ccccc2)OCCCC[C@H](C)Oc2ccc(NC(=O)NC3CCCCC3)cc2C1=O`, the cytotoxicity call in assay [1] is “inactive”. Further, the cytotoxicity call in assay [2] was “active”. Besides, the growth inhibition call in assay [3] was “inactive”.
As for `CS(=O)(=O)N1CCC(CN)CC1`, the cytotoxicity call in assay [1] and in assay [2] was “inactive” in each case. The growth inhibition call in assay [3] was “inactive”.
As for `COc1ccc(NC(=O)Nc2ccc3c(c2)C(=O)N([C@@H](C)CO)C[C@@H](C)[C@H](CN(C)Cc2ccc(C(F)(F)F)cc2)OCCCC[C@@H](C)O3)cc1`, in assay [1], the cytotoxicity call was “inactive”. Besides, the cytotoxicity call in assay [2] is “active”. In assay [3], the growth inhibition call was “inactive”.
For `Cc1noc(C)c1NC(=O)N(C)C[C@@H]1OCCCC[C@@H](C)Oc2ccc(NC(=O)NC3CCCCC3)cc2C(=O)N([C@@H](C)CO)C[C@H]1C`, the cytotoxicity call in assay [1] and in assay [2] was “inactive” each time. For the same compound, the growth inhibition call in assay [3] is “inactive”.
Regarding `COc1ccc(CN(C)C[C@H]2OCCCC[C@@H](C)Oc3ccc(NC(=O)NC4CCCCC4)cc3C(=O)N([C@H](C)CO)C[C@H]2C)cc1`, the cytotoxicity call in assay [1] is “inactive”. Besides, in assay [2], the cytotoxicity call is “active”. Moreover, the growth inhibition call in assay [3] is “inactive”.
`COc1ccc(-c2ccc3n(c2=O)C[C@H]2[C@H](CO)[C@@H](C(=O)NCC4CC4)[C@@H]3N2S(C)(=O)=O)cc1`: the cytotoxicity call in assay [1] and in assay [2] was “inactive” throughout. For the same compound, the growth inhibition call in assay [3] is “inactive”.
For the compound `C=CC[C@@H](CC(=O)NCCO)C(=O)N[C@@H](C)COC(=O)[C@@H](CC=C)NC(=O)OCC1c2ccccc2-c2ccccc21`, the cytotoxicity call in assay [1] and in assay [2] was “inactive” in each case. In assay [3], the growth inhibition call was “inactive”.
For the compound `O=C(O)c1csc2ccccc12`, the cytotoxicity call in assay [1] and in assay [2] was “inactive” in each case. Also, in assay [3], the growth inhibition call was “inactive”.
Take `COc1ccccc1CNC(=O)C[C@@H]1C[C@H]2c3cc(NC(=O)c4cccnc4)ccc3O[C@H]2[C@@H](CO)O1`: the cytotoxicity call in assay [1] and in assay [2] was “inactive” in each case. Besides, the growth inhibition call in assay [3] was “inactive”.
In the case of `COCC#Cc1cnc2c(c1)C(=O)N([C@H](C)CO)C[C@H](C)[C@H](CN(C)C(C)=O)O2`, the cytotoxicity call in assay [1] and in assay [2] was “inactive” in each case. In assay [3], the growth inhibition call is “inactive”.
`C[C@H]1CN([C@@H](C)CO)C(=O)Cc2cc(NC(=O)CCN3CCOCC3)ccc2O[C@H]1CN(C)C(=O)NC1CCCCC1`: the cytotoxicity call in assay [1] and in assay [2] was “inactive” throughout. Also, the growth inhibition call in assay [3] was “inactive”.
For `C[C@H](CO)N1C[C@H](C)[C@@H](CN(C)C(=O)Nc2ccc(C(F)(F)F)cc2)Oc2c(NC(=O)Nc3ccc(C(F)(F)F)cc3)cccc2C1=O`, the cytotoxicity call in assay [1] and in assay [2] was “active” in each case. For the same compound, the growth inhibition call in assay [3] is “inactive”.
With `Cc1noc(C)c1NC(=O)Nc1ccc2c(c1)C(=O)N([C@H](C)CO)C[C@H](C)[C@@H](CN(C)Cc1ccc(C(F)(F)F)cc1)OCCCC[C@@H](C)O2`, the cytotoxicity call in assay [1] and in assay [2] was “inactive” in each case. For the same compound, the growth inhibition call in assay [3] was “inactive”.
On to `Cc1cc(C(=O)Nc2cccc3c2O[C@@H](CN(C)C(=O)Nc2ccccc2)[C@H](C)CN([C@@H](C)CO)C3=O)n(C)n1`, for which the cytotoxicity call in assay [1] and in assay [2] was “inactive” in each case. In assay [3], the growth inhibition call is “inactive”.
With `C[C@@H]1CN([C@H](C)CO)C(=O)c2cc(NC(=O)CCN3CCOCC3)ccc2O[C@H]1CN(C)Cc1ccc2c(c1)OCO2`, the cytotoxicity call in assay [1] and in assay [2] was “inactive” each time. Besides, the growth inhibition call in assay [3] was “inactive”.
Turning to `C[C@@H]1CN([C@@H](C)CO)C(=O)CCCn2cc(nn2)CO[C@@H]1CN(C)C(=O)C1CC1`, the cytotoxicity call in assay [1] and in assay [2] was “inactive” throughout. The growth inhibition call in assay [3] was “inactive”.
For `CN1CCC(=C2c3ccccc3C=Cc3ccccc32)CC1.Cl`, the cytotoxicity call in assay [1] was “inactive”. Besides, the cytotoxicity call in assay [2] is “active”. The growth inhibition call in assay [3] is “inactive”.
Regarding `Cc1noc(C)c1S(=O)(=O)Nc1ccc2c(c1)C(=O)N([C@@H](C)CO)C[C@H](C)[C@H](CN(C)C(=O)Nc1ccc3c(c1)OCO3)O2`, the cytotoxicity call in assay [1] and in assay [2] was “inactive” throughout. The growth inhibition call in assay [3] was “inactive”.
Consider `C[C@@]1(c2cccs2)CC(c2cccs2)=Nc2ccccc2N1`, for which the cytotoxicity call in assay [1] and in assay [2] was “inactive” each time. In addition, the growth inhibition call in assay [3] was “inactive”.
In the case of `C[C@H]1CN([C@@H](C)CO)C(=O)c2ccccc2-c2ccccc2CO[C@H]1CN(C)S(=O)(=O)c1cn(C)cn1`, the cytotoxicity call in assay [1] and in assay [2] was “inactive” throughout. In assay [3], the growth inhibition call was “inactive”.
Take `C[C@@H]1CCCCO[C@H](CN(C)Cc2ccncc2)[C@H](C)CN([C@H](C)CO)C(=O)c2cc(NC(=O)CCC(F)(F)F)ccc2O1`: the cytotoxicity call in assay [1] and in assay [2] was “inactive” throughout. Besides, the growth inhibition call in assay [3] is “inactive”.
`C[C@@H]1CN([C@H](C)CO)C(=O)c2cc(NS(C)(=O)=O)ccc2O[C@@H]1CN(C)S(=O)(=O)c1cccs1`: the cytotoxicity call in assay [1] and in assay [2] was “inactive” each time. The growth inhibition call in assay [3] is “inactive”.
For the compound `O=C(C[C@@H]1CC[C@H]2[C@@H](COC[C@@H](O)CN2Cc2cccc(C(F)(F)F)c2)O1)NCCc1ccncc1`, the cytotoxicity call in assay [1] and in assay [2] was “inactive” each time. Further, the growth inhibition call in assay [3] is “inactive”.
As for `Cc1noc(C)c1S(=O)(=O)N(C)C[C@@H]1Oc2ccc(NC(=O)NC3CCCCC3)cc2CC(=O)N([C@@H](C)CO)C[C@@H]1C`, the cytotoxicity call in assay [1] and in assay [2] was “inactive” in each case. Besides, the growth inhibition call in assay [3] was “inactive”.
